Data from article PMC2727002.
Results are given in words; binding and its absence hold for the method and conditions named. Binding seen in cells or lysates may run through a third protein. Some entries that bind do so weakly or less than the wild type. Sequences can lack the tags named with a protein.

Molecular target: T1, Tap-tagged Rrp46 (yeast) (UniProt P53256)
T1 sequence: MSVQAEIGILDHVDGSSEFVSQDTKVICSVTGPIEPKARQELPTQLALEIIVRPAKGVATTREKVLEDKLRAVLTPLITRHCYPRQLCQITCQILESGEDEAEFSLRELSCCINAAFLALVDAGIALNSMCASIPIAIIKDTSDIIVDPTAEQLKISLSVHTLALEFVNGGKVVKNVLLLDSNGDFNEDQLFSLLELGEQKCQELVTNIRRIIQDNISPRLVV
Test: co-IP; 2 mg of extract of cells expressing a Tap-tagged protein incubated overnight at 4°C with protein G magnetic beads with or without antibody against CBP; 40 mM Hepes pH 7.5, 1 mM EDTA, 20% glycerol, 150 mM potassium acetate, 100 mM potassium chloride; wild-type, caf40Δ or not4Δ cells as named; western blot

B1: Not5 (protein, UniProt Q12514 1-560)
chain: MSQRKLQQDIDKLLKKVKEGIEDFDDIYEKFQSTDPSNSSHREKLESDLKREIKKLQKHRDQIKTWLSKEDVKDKQSVLMTNRRLIENGMERFKSVEKLMKTKQFSKEALTNPDIIKDPKELKKRDQVLFIHDCLDELQKQLEQYEAQENEEQTERHEFHIANLENILKKLQNNEMDPEPVEEFQDDIKYYVENNDDPDFIEYDTIYEDMGCEIQPSSSNNEAPKEGNNQTSLSSIRSSKKQERSPKKKAPQRDVSISDRATTPIAPGVESASQSISSTPTPVSTDTPLHTVKDDSIKFDNSTLGTPTTHVSMKKKESENDSEQQLNFPPDRTDEIRKTIQHDVETNAAFQNPLFNDELKYWLDSKRYLMQPLQEMSPKMVSQLESSLLNCPDSLDADSPCLYTKPLSLPHPTSIFFPNEPIRFVYPYDVPLNLTNNENDTDNKFGKDSKAKSKKDDDIYSRTSLARIFMKFDLDTLFFIFYHYQGSYEQFLAARELFKNRNWLFNKVDRCWYYKEIEKLPPGMGKSEEESWRYFDYKKSWLARRCGNDFVYNEEDFEKL
  binding: binds
